Reference: the supplement of paper PMC7125110
± gives the standard error. Variants at the floor of the assay are shown more often than the library holds them.

B1: glmS ribozyme (parent)
chain: AUAAAAGCGCCAGAACUACAGAAAUGUAGUUGACGAGGAGGAGGUUUAUCGAAUUUUCGGCGGAUGCCUCCAAA

Variants of: B1
Assay: self-cleavage kobs at 2500 uM GlcN6P; higher = faster cleavage; RNA array
Details: with glucosamine-6-phosphate
Procedure, shortened: (§1)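 Glucosamine-6-phosphate (40 μM to 10 mM) in HEPES/KCl/Mg(OAc)2 buffer was flowed over sequenced MiSeq chips, and tiles were imaged over ~14 h. Barcoded ribozyme variants there had been transcribed in situ by E. coli RNA polymerase and were tracked through a hybridised Cy3 probe at 37 °C. One- or two-exponential decay fits to per-tile medians, normalised to baseline and to non-cleaving reference variants, gave kobs. kcat and KM came from weighted Michaelis–Menten fits across concentrations.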

| Variant | self-cleavage kobs at 2500 uM GlcN6P |
| --- | --- |
| A12C C34U A52G C68A | < 1e-05 s⁻¹ |
| G13C C16A G32U G41U G44U U55A | < 1e-05 s⁻¹ |
| C11G C16A U30C U31C U69A | < 1e-05 s⁻¹ |
| A15G G44U C50U A64U | < 1e-05 s⁻¹ |
| A12U A33U G40U | 3.71e-05 ± 1.4e-05 s⁻¹ |
| G13U C61G C71U | < 1e-05 s⁻¹ |
| C16G G32C G35C A36U A53C C70A | < 1e-05 s⁻¹ |
| A14C G35A A52G | < 1e-05 s⁻¹ |
| A12G A42C A48C C50G C71G | < 1e-05 s⁻¹ |
| G13C U45G C61G | < 1e-05 s⁻¹ |
| C11G C61A C68A | 8.83e-05 ± 2.3e-05 s⁻¹ |
| G29C A33C G66U C70G | < 1e-05 s⁻¹ |
| A12U G13A G38U | < 1e-05 s⁻¹ |
| G26U G43C | < 1e-05 s⁻¹ |
| A15C U47C U55C | 0.000237 ± 7.7e-05 s⁻¹ |
| A15G G40C G59U G63A | < 1e-05 s⁻¹ |
| G13C A33C G38U | < 1e-05 s⁻¹ |
| G13U C58G G63A | < 1e-05 s⁻¹ |
| A12G U45A C70G | 0.000143 ± 3.9e-05 s⁻¹ |
| G13C G29C G38U C67G | 0.000596 ± 0.0002 s⁻¹ |
| A12U G35U G40U A48C C58G | < 1e-05 s⁻¹ |

| Variant | self-cleavage kobs at 2500 uM GlcN6P |
| --- | --- |
| C16U G43A C67A U69A | 6.4e-05 ± 2.1e-05 s⁻¹ |
| A12G G37C U56A G60A C61U G62U | < 1e-05 s⁻¹ |
| A14C G51A A53C G60C | < 1e-05 s⁻¹ |
| G13U G37A G40C A52C A53G | < 1e-05 s⁻¹ |
| A14C U47G A48U G51A | < 1e-05 s⁻¹ |
| G29U C50U C61U | < 1e-05 s⁻¹ |
| C11U C34U G41A G66A C67U | < 1e-05 s⁻¹ |
| A12G C34U A52U | < 1e-05 s⁻¹ |
| A14C A48G C70U | 5.88e-05 ± 2.6e-05 s⁻¹ |
| G13C A15C G32U G44A G59U | < 1e-05 s⁻¹ |
| G13U G37C G40C G44U U54C G66C | < 1e-05 s⁻¹ |
| A12C G13U U49A A52U U57A | < 1e-05 s⁻¹ |
| C11U G35A C70A | < 1e-05 s⁻¹ |
| A15G U31C G41U U47G G59A C67U | < 1e-05 s⁻¹ |
| A14U G44U U46A C61U G66A | < 1e-05 s⁻¹ |
| G29U G40U G62U G63A C71A | < 1e-05 s⁻¹ |
| A15C A36G U56C U69G C71U | < 1e-05 s⁻¹ |
| C11G U46A G51A | < 1e-05 s⁻¹ |
| C16G G35A G60C | < 1e-05 s⁻¹ |
| A15G U55A A64U | 9.74e-05 ± 1.8e-05 s⁻¹ |
| A14G C16U U30G G35C U45G | < 1e-05 s⁻¹ |

| Variant | self-cleavage kobs at 2500 uM GlcN6P |
| --- | --- |
| A14G G32U A33U C68G | < 1e-05 s⁻¹ |
| G29A A33U U57C C58A | < 1e-05 s⁻¹ |
| G29A G38U U46G | < 1e-05 s⁻¹ |
| A15C G40A G44U | < 1e-05 s⁻¹ |
| A14C A42U U45G U46C G63C A64G | < 1e-05 s⁻¹ |
| A15C G43A U55G G59U | < 1e-05 s⁻¹ |
| A14U U49C C71U | < 1e-05 s⁻¹ |
| A14G G38C A39U G60A | < 1e-05 s⁻¹ |
| A15U G44A G51A A53U | < 1e-05 s⁻¹ |
| C16G G40U U69G | < 1e-05 s⁻¹ |
| G29C G38U G40C C50G | < 1e-05 s⁻¹ |
| A15G C16G C71G | 0.000115 ± 4e-05 s⁻¹ |
| G13U U45A U46A C58U | 6.89e-05 ± 3.4e-05 s⁻¹ |
| G29C A33U G35U G37C C61G | < 1e-05 s⁻¹ |
| G26C U47C G60C | < 1e-05 s⁻¹ |
| C11U U46G A52U G66A | < 1e-05 s⁻¹ |
| A15C A33G | < 1e-05 s⁻¹ |
| A15C A33C | 3.95e-05 ± 1.2e-05 s⁻¹ |
| C11G C61A G62C | < 1e-05 s⁻¹ |
| C11G C50G C58A | 0.00031 ± 0.00011 s⁻¹ |
| A14C A52C C58A C61U | < 1e-05 s⁻¹ |

| Variant | self-cleavage kobs at 2500 uM GlcN6P |
| --- | --- |
| A15C U49G | 8.06e-05 ± 2.4e-05 s⁻¹ |
| A12U C34A U57C | < 1e-05 s⁻¹ |
| G13A A39C U45C U55C U56A U57C G63C | < 1e-05 s⁻¹ |
| A14C G41U A42U A64U C70G | < 1e-05 s⁻¹ |
| C11G G43U C58A | < 1e-05 s⁻¹ |
| G29U G35A A53C | < 1e-05 s⁻¹ |
| C11U U30C A52G G59C | < 1e-05 s⁻¹ |
| C16U U49G G66C C71U | < 1e-05 s⁻¹ |
| G13A U65G | 8.18e-05 ± 2e-05 s⁻¹ |
| C11U G60C C61G | < 1e-05 s⁻¹ |
| A12C A15G G29C A52G | < 1e-05 s⁻¹ |
| G29A G32U G60C | < 1e-05 s⁻¹ |
| A12G G43C U45A C50U C67A | < 1e-05 s⁻¹ |
| C16A G66A C71G | 5.24e-05 ± 2.5e-05 s⁻¹ |
| G29A U31G U54G | 6.58e-05 ± 3.2e-05 s⁻¹ |
| C16U G51U A52C C68A C70U C71U | < 1e-05 s⁻¹ |
| A12C G66U C70A | 0.000107 ± 2.6e-05 s⁻¹ |
| A12G G37C G43A C70G | < 1e-05 s⁻¹ |
| G13C C34G U49C C71A | < 1e-05 s⁻¹ |

Variants of: B1
Assay: self-cleavage kobs at 10000 uM GlcN6P; higher = faster cleavage; RNA array
Details: with glucosamine-6-phosphate
Procedure, shortened: as §1

| Variant | self-cleavage kobs at 10000 uM GlcN6P |
| --- | --- |
| A12G A42C A48C C50G C71G | < 1e-05 s⁻¹ |
| C11U C34U G41A G66A C67U | < 1e-05 s⁻¹ |
| A15G C16G C71G | 9.34e-05 ± 2.6e-05 s⁻¹ |
| A15C A33G | < 1e-05 s⁻¹ |
| A15C A33C | 5.37e-05 ± 6.3e-06 s⁻¹ |
| A12U C34A U57C | < 1e-05 s⁻¹ |
